# Measured values as given in publication PMC4336329 (PLoS ONE, 2015).
# Hit rate of the full screen: of about 310,000 compounds, about 14,000 (4.5%) showed an effect of 50% or more. The effect is printed as a negative number. Some of the results follow.
# Target: human ether-à-go-go-related gene (hERG) potassium channel (human, UniProt Q12809)
# Assay: primary screen, population patch clamp on CHO cells stably expressing hERG
# 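Note: peak tail current of the secondary pulse compared with the same well before compound.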
# Sequence of human ether-à-go-go-related gene (hERG) potassium channel (Q12809 whole entry, looked up): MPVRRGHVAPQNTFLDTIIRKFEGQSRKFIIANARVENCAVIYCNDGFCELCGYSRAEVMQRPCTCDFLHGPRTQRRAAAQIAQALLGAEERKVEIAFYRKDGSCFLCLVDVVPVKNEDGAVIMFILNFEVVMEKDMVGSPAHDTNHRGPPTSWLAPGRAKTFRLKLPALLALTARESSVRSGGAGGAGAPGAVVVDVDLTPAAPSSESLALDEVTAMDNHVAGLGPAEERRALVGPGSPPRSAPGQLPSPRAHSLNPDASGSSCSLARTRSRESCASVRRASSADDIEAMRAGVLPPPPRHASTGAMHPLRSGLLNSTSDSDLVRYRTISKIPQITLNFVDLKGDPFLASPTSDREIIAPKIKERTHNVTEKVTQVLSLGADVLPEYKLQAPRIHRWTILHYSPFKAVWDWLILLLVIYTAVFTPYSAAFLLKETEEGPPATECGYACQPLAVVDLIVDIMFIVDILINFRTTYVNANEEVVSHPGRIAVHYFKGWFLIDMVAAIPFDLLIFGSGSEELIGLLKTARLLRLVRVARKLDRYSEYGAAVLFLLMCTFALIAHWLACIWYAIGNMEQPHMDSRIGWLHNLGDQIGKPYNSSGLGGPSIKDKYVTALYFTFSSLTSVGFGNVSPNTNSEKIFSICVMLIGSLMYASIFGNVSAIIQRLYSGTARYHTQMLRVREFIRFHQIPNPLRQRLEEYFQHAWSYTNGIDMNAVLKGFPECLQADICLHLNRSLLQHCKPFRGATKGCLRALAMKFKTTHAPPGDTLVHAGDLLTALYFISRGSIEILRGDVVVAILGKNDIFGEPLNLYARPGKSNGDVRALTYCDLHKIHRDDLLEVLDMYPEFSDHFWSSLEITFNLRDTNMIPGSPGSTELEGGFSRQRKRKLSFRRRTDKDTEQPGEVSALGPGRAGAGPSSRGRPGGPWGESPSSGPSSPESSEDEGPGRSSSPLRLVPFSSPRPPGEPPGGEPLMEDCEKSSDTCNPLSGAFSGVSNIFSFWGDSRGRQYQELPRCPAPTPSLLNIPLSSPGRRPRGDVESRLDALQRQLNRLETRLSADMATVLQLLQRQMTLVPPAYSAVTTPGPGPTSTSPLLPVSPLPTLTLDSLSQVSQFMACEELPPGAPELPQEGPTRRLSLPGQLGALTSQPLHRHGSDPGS
row,Structure (SMILES),"hERG current change (%, negative = inhibition) at 10uM [%]"
1,C/C(=N\NC(=O)CSCc1ccc(Cl)cc1)c1ccc2c(c1)OCCO2,-0.841
2,CCn1c(=O)cc(SCC(=O)NCC2CCCO2)c2ccccc21 (centres unmarked),-6.43
3,O=C(COc1ccccc1Cl)Nc1ccc(S(=O)(=O)Nc2ccccn2)cc1,13
4,O=C(O)c1n[nH]nc1-c1ccccc1,17.4
5,CCOc1ccc(NC(=O)Nc2cccs2)cc1,14.5
6,NS(=O)(=O)c1ccc(CCNC(=O)c2ccccc2Cc2ccccc2)cc1,-31.6
7,COc1cc(C)cc(CN2CCC(Cc3ccccc3)CC2)c1O,-52.2
8,O=C(COC(=O)c1cccs1)c1ccc2ccccc2c1,-6.69
9,CC1=CC2=NC(=O)CC(C)(C(=O)N(CC(=O)NC(C)(C)C)Cc3cccs3)N2C=C1 (centres unmarked),-17.1
10,Cc1ccc(NC(=S)N(CCN(C)C)Cc2cc3cc(C)ccc3[nH]c2=O)cc1,-43.5
11,O=C(CNC(=O)Cc1ccc(Cl)cc1)NCc1ccco1,11.3
12,Cc1cccc2cc(CN(CC3CCCO3)C(=O)c3ccco3)c3nnnn3c12 (centres unmarked),3.95
13,O=C(N/N=C\c1ccccn1)c1cccc(C(=O)N/N=C\c2ccccn2)n1,5.53
14,CC1CCN(C(=O)c2cc3nc(-c4ccccc4)cc(-c4ccccc4)n3n2)CC1,-7.21
15,COc1ccc(-c2nc(CN3CCC(C(=O)NC4CCCC4)CC3)c(C)o2)cc1OC,-36.4
16,CCCCn1c(=O)[nH]c(=O)c2c1nc(-c1ccc(-c3ccccc3Br)o1)n2CC,14.7
17,Cc1ccc(CS(=O)(=O)Cc2ccc(C(=O)N3CCC4(CC3)OCCO4)o2)cc1,-8.39
18,COc1ccc(CCNC(=O)C(=O)NCC2OCCN2S(=O)(=O)c2ccc(Cl)cc2)cc1OC (centres unmarked),-24.1
19,CCn1cc(NC(=O)Nc2ccc(OC)c(OC)c2)c(C(N)=O)n1,-4.98

row,Structure (SMILES),"hERG current change (%, negative = inhibition) at 10uM [%]"
1,CNC(=O)c1c(C)nn(-c2ccc(F)c(Cl)c2)c1-c1cc(C)on1,4.71
2,COc1ccc(OC)c(NC(=O)C2CCN(c3ncccn3)CC2)c1,-0.133
3,CCOC(=O)c1c(C)oc2ccc(OCC(N)=O)cc12,-7.78
4,Cn1c(C=O)c(C#CC(C)(C)O)c2ccccc21,10.1
5,C=CCn1c(SCC(=O)c2ccc(NS(=O)(=O)c3ccccc3)cc2)nnc1-c1cccs1,-19.5
6,c1ccc(-c2nnc(SCc3cn4ccsc4n3)o2)cc1,-13.8
7,CCOc1ccc(S(=O)(=O)NCc2ccncc2)cc1,-17.8
8,CC(c1ccc(F)cc1)n1c(-c2cccs2)n[nH]c1=S (centres unmarked),6.01
9,COc1cccc(C2C(C(=O)Nc3nc4ccccc4s3)=C(C)NC3=C2C(=O)CC(C)(C)C3)c1OC (centres unmarked),15.8
10,CC1(C)CC(=O)c2c(-c3cccnc3)n[nH]c2C1,-9.55
11,CCOc1ccc(-n2c(SCc3cc(=O)oc4cc(C)ccc34)nnc2-c2cccnc2)cc1,-70.7
12,CN(C)c1ccc(/C=N\NC(=S)SCN2C(=O)C3CCC(C)(C2=O)C3(C)C)cc1 (centres unmarked),10.7
13,CCC(=O)NC(c1cccs1)c1cc([N+](=O)[O-])c2cccnc2c1O (centres unmarked),15
14,COc1ccc(N=C(C)C2=C(O)CSC2=O)cc1,12.6
15,COc1ccc(CCNC(=O)CSc2ccccc2)cc1OC,-0.789
16,Cc1ccc(NS(=O)(=O)c2cc(OCC(N)=O)c(C)cc2Cl)cc1C,-22.8
17,Cc1cc(Cl)ccc1NC(=S)NCCc1ccc(Cl)cc1,15.6
18,CCCc1cc(=O)oc2c(C)c(OCC(=O)NC3CC(C)(C)NC(C)(C)C3)ccc12,-18
19,CCOC(=O)CSc1nc(C(C)(C)C)cc(C(F)(F)F)c1C#N,11.7

row,Structure (SMILES),"hERG current change (%, negative = inhibition) at 10uM [%]"
1,COc1cc(C(=O)Nc2ccc(F)cc2Cl)ccc1OCC(=O)N1CCOCC1,4.55
2,CCNc1nc(NC(C)(C)C)nc(SCC(N)=O)n1,10.5
3,Cc1c(C)n(CCC#N)c2ccc(Cl)cc12,-12.4
4,COCCCNC(=O)/C(=C\c1cccn1C)NC(=O)c1cccs1,7.68
5,Cc1ccc(C)c(N(CC(=O)NN=C2CCN(C)CC2)S(=O)(=O)c2ccccc2)c1,-3.06
6,COc1ccc(Cl)cc1NC(=O)c1cccc(N2C(=O)C3CC=CCC3C2=O)c1 (centres unmarked),-41.8
7,Cc1nnc(SCC(=O)NCc2ccco2)n1-c1ccccc1,26.1
8,COc1ccc(C(=O)N/C(=C\c2ccccc2)C(=O)NC(CCSC)C(=O)O)cc1 (centres unmarked),8.06
9,O=C(Nc1cc(Cl)cc(Cl)c1)N1CCCC1,3.91
10,CCN(CC)S(=O)(=O)c1cccc(S(=O)(=O)N2CCCCC2)c1,-26.4
11,C=CCN([C@@H](CC(C)C)C(=O)OC)S(=O)(=O)N(CC=C)[C@@H](CC(C)C)C(=O)OC,8.18
12,O=C(O)CCCC(=O)N1N=C(c2ccco2)CC1c1ccco1 (centres unmarked),9.6
13,CC(=O)c1cccc(NS(=O)(=O)c2ccc(N/C=C/C(=O)c3ccc(F)cc3)cc2)c1,8.3
14,N#Cc1ccc(-c2ccco2)nc1SCc1ccccc1,5.14
15,Cc1cccc(NC(=O)CSCC(=O)Nc2cccc(S(=O)(=O)N3CCCCCC3)c2)c1,-9.69
16,Cc1nc(-c2ccccc2)nc2[nH]c(C(C)C)cc(=O)c12,-7.26
17,CCCS(=O)(=O)N1CCCC(C(=O)Nc2ccc3c(c2)CCC3)C1 (centres unmarked),5.43
18,Cc1ccc(-c2n[nH]c(=S)n2/N=C/c2c(C)[nH]n(-c3ccccc3)c2=O)cc1,31.8
